Laboratory results taken from PubChem BioAssay AID1508624 (National Center for Advancing Translational Sciences (NCATS), 2021).
Out of some 48,000 compounds screened, about 120 (0.25%) were called active. About 4% were inconclusive and are not listed. Calls come from the whole dose curve; as a rule, active = well fitted activation curve with a large enough effect; inconclusive = small, poorly fitted or top-dose-only effect, or another doubt; inactive = no such curve, though single readings can be large or run the other way. The list shows a part of the results.

Assay: Primary qHTS for Identification of Small Molecule Activators of Huntingtin-Antisense Promoter Activity; note: nearly all actives have a fitted effect of over 55% in size
Conditions: HEK293 HTT-AS promoter firefly luciferase reporter (activity 0% = vehicle and -100% = no light), 24 h; series mostly up to 57.5 µM; activity change, positive = activation: at the top concentration
In short: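 HEK293 cells carrying firefly luciferase reporters were seeded at 2,500 per well in Opti-MEM and cultured for 24 h. They were then treated with compounds at up to 57.5 uM final for 24 h at 37 degrees C before Dual-Glo luminescence readout.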
Potency is the fitted concentration of half-maximal effect.

| SMILES | activity change, positive = activation | Potency |
| --- | --- | --- |
| O=C(CCC1N=C2c3ccccc3N=C(SCc3ccccc3Cl)N2C1=O)NCCc1ccccc1 (centres undefined) | inactive: 10.9% | – |
| Cn1c(=O)n(-c2ccc3c(c2)OCO3)c2nc(-c3ccc(Cl)cc3)nc(C(N)=O)c21 | inactive: -12.3% | – |
| Cc1ccccc1NC(=O)CSc1nc(-c2ccc(F)cc2)nc2c1Cc1ccccc1O2 | inactive: 17.6% | – |
| CC1=C(C(=O)Nc2cccnc2)C(c2ccccc2)n2nc(SCc3ccccc3)nc2N1 (centres undefined) | inactive: -8.2% | – |
| O=C(Cn1nc(-c2ccccc2)c2cnc3ccccc3c21)Nc1ccccc1 | inactive: -12.2% | – |
| Cc1ccc(C)c(NC(=O)CN2C(=O)C3(SCC(=O)N3c3ccc(C)c(C)c3)c3ccccc32)c1 (centres undefined) | inactive: -20.6% | – |
| CCC(=O)N1CCc2cc(CNS(=O)(=O)c3c(C)cc(C)cc3C)ccc21 | inactive: -25.1% | – |
| Cc1ccc(Cn2nnc3sc4c(c3c2=O)CCC(C)C4)cc1 (centres undefined) | inactive: -14.6% | – |
| CCCCOc1ccc(C(=O)Nc2ccc(S(=O)(=O)Nc3nc(C)cc(C)n3)cc2)cc1 | inactive: -39% | – |
| CC1CCc2nc3ncn(Cc4ccc(Cl)cc4)c(=O)c3cc2C1 (centres undefined) | – | active: 3.16 µM |
| Cc1nnc(NCc2ccc(Cl)cc2)c2c1nnn2Cc1ccc(F)cc1 | inactive: 8.28% | – |
| Cc1ccc2nc(-c3ccc(Cl)c(NC(=O)c4ccc5c(c4)OCCO5)c3)oc2c1 | inactive: 21.5% | – |
| COC(=O)c1ccccc1NC(=O)c1cc(-c2ccc(Cl)cc2)on1 | inactive: -1.17% | – |
| CCCCCCNc1nc2c(c(=O)n(C)c(=O)n2C)n1Cc1cccc(C)c1 | inactive: -22.9% | – |
| COCCCNC(=O)c1ccc(Cn2c(=O)c3ccccc3n(CC(=O)Nc3c(C)cccc3C)c2=O)cc1 | inactive: -8.28% | – |
| CCOc1cc(C(=O)Nc2ccc3nc(Nc4cccc(Cl)c4)cc(C)c3c2)cc(OCC)c1OCC | inactive: -2.57% | – |
| Cc1nnc(SCc2cc(=O)n3cccc(C)c3n2)s1 | inactive: 6.54% | – |
| Cc1nn2c(C)c(C(=O)N3CCN(c4ccccc4F)CC3)cnc2c1-c1ccc(F)cc1 | inactive: 1.53% | – |
| Cc1cccc(CCNC(=O)C2CCC(CNS(=O)(=O)c3ccccc3)CC2)c1 (centres undefined) | inactive: -0.788% | – |
| COc1cccc(-c2nc(CS(=O)(=O)CC(=O)NCCc3ccc(OC)cc3OC)c(C)o2)c1 | inactive: -20.6% | – |
| CCCC(CCC)C(=O)Nc1cccc(-c2nc3cccnc3s2)c1C | inactive: -17.4% | – |
| N#Cc1ccccc1Cn1c(=O)n(CCCC(=O)NCc2ccccc2Cl)c(=O)c2ccccc21 | inactive: -8.31% | – |
| O=C(Nc1ccc(F)c(Cl)c1)C1CCN(C(=O)c2ccc(F)cc2)CC1 | inactive: 3.6% | – |
| CNS(=O)(=O)Cc1ccc2[nH]cc(CCN(C)C)c2c1 | inactive | – |

| SMILES | activity change, positive = activation | Potency |
| --- | --- | --- |
| CCOC(=O)c1ccc(NC(=O)c2cnn(-c3ccc(C)cc3C)c2C2CCN(C(=O)OC(C)(C)C)CC2)cc1 | inactive: 7.01% | – |
| COc1ccc(NC(=O)C2CCN(S(=O)(=O)c3ccc4[nH]c(=O)ccc4c3)CC2)cc1Cl | inactive: -17.3% | – |
| COc1cc(OC)c(NC(=O)C(c2ccccc2)N2Cc3ccccc3C2=O)cc1Cl (centres undefined) | inactive: -2.08% | – |
| O=C(CCCl)NCc1ccccc1 | inactive: -8.71% | – |
| CCOc1ccc(N2CC(c3nc4ccccc4n3CCCOc3ccccc3OC)CC2=O)cc1 (centres undefined) | inactive: 0.0368% | – |
| CCc1nnc(SCc2cccc(F)c2)c2cc3sc(C)cc3n12 | inactive: -26.1% | – |
| CCS(=O)(=O)N1CC(=O)N(c2ccc(Cl)cc2C)C(C)(C(=O)NC2CCCCCC2)C1 (centres undefined) | inactive: -34.2% | – |
| CCOC(=O)c1scc(-c2ccccc2)c1S(=O)(=O)Nc1ccc(N(C)C)cc1 | inactive: -25.8% | – |
| CC(C)CN(CCCNC(=O)c1cc(-c2ccc(Br)s2)nc2ccccc12)CC(C)C | inactive: -15.8% | – |
| O=C(Nc1nonc1-c1ccc(Cl)cc1)c1ccccc1F | inactive: -42.1% | – |
| COc1ccc(CCNC(=O)C2(c3cccs3)CCOCC2)cc1 | inactive: -21% | – |
| COc1ccc(N2CC(NC(=O)/C=C\c3ccc4c(c3)OCO4)CC2=O)cc1 (centres undefined) | inactive: -44.4% | – |
| COc1ccc(OC)c(CNC(=O)c2ccc3nc(C(C)C)oc3c2)c1 | inactive: 1.02% | – |
| COc1cc(OC)c(NC(=O)c2c(N3CCCC3=O)c3cc(C)ccc3n2C)cc1Cl | inactive: -8.32% | – |
| CCCc1ccc(S(=O)(=O)N2CCC(c3nnc(-c4cccc(C)c4)o3)CC2)cc1 | inactive: -67.5% | – |
| COc1ccc(Cl)cc1C(=O)Nc1ccc2nc(Nc3cccc(Cl)c3)cc(C)c2c1 | inactive: -9.87% | – |
| CCOc1ccccc1NC(=O)Cn1ncc2c([nH]c3ccccc32)c1=O | inactive: -13.8% | – |
| Cc1ccccc1OCC(=O)Nc1nnc(S(=O)(=O)N2CCCC2)s1 | inactive: -15.1% | – |
| COc1ccc(C)cc1NC(=O)c1c2c(nc3ccccc13)C(=O)N(C1CCCCC1)C2 | inactive: -44.8% | – |
| Cc1ccc(-c2cc3ncc(C(=O)c4cc(Cl)c(C)cc4O)cn3n2)cc1 | inactive: -6.71% | – |
| CCOc1ccc(Br)cc1C1C(C(=O)OC)=C(C)NC2=C1C(=O)c1ccccc12 (centres undefined) | inactive: 0.839% | – |
| CCN(C(=O)CSc1ncc2c(n1)-c1cc(Cl)ccc1N(Cc1ccccc1)S2(=O)=O)c1cccc(C)c1 | inactive: -14.5% | – |
| Cc1ccc(Cl)cc1NC(=O)C(Cc1ccccc1)NS(=O)(=O)c1cccc2nsnc12 (centres undefined) | inactive: -11.2% | – |
| CCc1c(C)sc2c1CCN(C(=O)Nc1ccccc1C(=O)OC)C2c1ccc(OC)cc1 (centres undefined) | inactive: 10.6% | – |

| SMILES | activity change, positive = activation | Potency |
| --- | --- | --- |
| COc1ccc(OC)c(C2Nc3c(C)cc(C)cc3-c3cc(C)nn32)c1 (centres undefined) | inactive: 15.6% | – |
| Cc1ccc(NS(=O)(=O)c2ccc3c(c2)CC(=O)N3)cc1Cl | inactive: -22.4% | – |
| O=C(NCc1ccc(Cl)cc1)C1=Cc2cc(Br)ccc2OC1 | inactive: -16.6% | – |
| CCOc1ccc(NC(=O)CN2C(=O)C(c3ccc(Cl)cc3)=NC2(C)C)cc1 | inactive: -22.4% | – |
| CCC(=O)N1CCc2cc(Br)cc(S(=O)(=O)N3CCCC(C(=O)Nc4cc(C)ccc4OC)C3)c21 (centres undefined) | inactive: -6.75% | – |
| CCn1c(=O)cc(OCC(=O)N(C)c2ccc(OC)cc2)c2ccccc21 | inactive: -2.35% | – |
| CCC(CC)(CC(=O)Nc1cccc(/C=C/c2nc(C3CCC3)cs2)c1)C(=O)O | inactive: 19.8% | – |
| Cc1ccc(Cl)cc1N1CCN(C(=O)c2cc3ccc4cccnc4c3[nH]2)CC1 | inactive: 13.4% | – |
| NC(=O)c1ncn([C@@H]2O[C@H](CO)[C@@H](O)[C@H]2O)n1 | inactive: -25.5% | – |
| CCc1cccc(NC(=O)Cn2c(=O)n(CCC(=O)NCc3ccccc3Cl)c(=O)c3sccc32)c1 | inactive: -1.07% | – |
| CCOC(=O)c1cc(C)n(CC2CCC(C(=O)Nc3cccc(Cl)c3)CC2)c1C (centres undefined) | inactive: -16.6% | – |
| CCN(CC)c1ccc(NC(=O)CN2CCN(c3ccccc3OC)CC2)cc1 | inactive: -14.6% | – |
| Oc1c(C(c2ccccc2)N2CCOCC2)sc2nc(-c3ccco3)nn12 (centres undefined) | inactive: 10.2% | – |
| Cc1cc(C)cc(NC(=O)c2sc3nc4n(c(=O)c3c2C)N=C(c2ccccc2)CS4)c1 | inactive: 5.84% | – |
| Cc1cccc(OC(C)C(=O)Nc2nonc2-c2ccc(Br)cc2)c1C (centres undefined) | inactive: -34.2% | – |
| COc1ccc(C2=C(C)C(=O)N(Cc3ccc(C(=O)NC(C)c4ccccc4)cc3)S2(=O)=O)cc1 (centres undefined) | inactive: -8.1% | – |
| CCOC(=O)[C@H](CCc1ccccc1)N[C@@H](C)C(=O)N1[C@H](C(=O)O)C[C@@H]2CCC[C@@H]21 | inactive: -6.37% | – |
| CCOc1ccc(N2CC(c3nc4ccccc4n3CCCCOc3ccc(OC)cc3)CC2=O)cc1 (centres undefined) | inactive: -35.1% | – |
| Cc1cc(=O)n2nc(N3CCC(C(=O)Nc4c(C)cccc4C)CC3)sc2n1 | inactive: -1.93% | – |
| CC1CCN(S(=O)(=O)c2cc3c4c(c2)C(C)C(=O)N4CCC3)CC1 (centres undefined) | inactive: -4.83% | – |
| Cc1cccc(N2C(=O)CSC23C(=O)N(CC(=O)Nc2cccc(Cl)c2)c2ccccc23)c1 (centres undefined) | inactive: -31.7% | – |
| O=C(NC1CCCCCC1)C1c2ccccc2C(=O)N1Cc1ccc(F)cc1 (centres undefined) | inactive: -11.6% | – |
| COc1ccc(CNC(=O)CN2C(=O)CSc3ccc(S(=O)(=O)N(C)C)cc32)cc1 | inactive: 7.98% | – |
| COc1ccc(-c2onc(C)c2C)cc1S(=O)(=O)Nc1cccc(C#N)c1 | inactive: -37.1% | – |

| SMILES | activity change, positive = activation | Potency |
| --- | --- | --- |
| CN(C)CCN(Cc1ccco1)C(=O)c1cc2c(s1)-c1ccccc1OC2 | inactive: -28.1% | – |
| O=C(NCCc1ccc(Cl)cc1)c1ccc2c(c1)nc1n2CCOC1 | inactive: 17.5% | – |
| CCOC(=O)N1CCc2c(sc3c2c(=O)n(-c2ccc(F)cc2)c(=O)n3CC(=O)c2ccc(Cl)cc2)C1 | inactive: -13.7% | – |
| Cc1cccc(C(=O)NC2(C(F)(F)F)N=C(c3ccccc3)N(C3CCCCC3)C2=O)c1 (centres undefined) | inactive: -2.28% | – |
| COc1ccc([C@@H]2Sc3ccccc3NC(=O)[C@@H]2O)cc1 | inactive: -13.7% | – |
| CC(=O)C1=C(c2ccc(F)cc2)N(C(C)=O)n2c(nnc2C2CCCCC2)S1 | inactive: -0.967% | – |
| CNC(=O)c1ccc(-c2cnc3ncc(Cc4ccc5ncccc5c4)n3n2)cc1F | inactive: -3.38% | – |
| COC(=O)[C@H]1[C@H]2C[C@@H]3c4[nH]c5cc(OC)ccc5c4CCN3C[C@H]2C[C@@H](OC(=O)COc2ccc(OC)cc2)[C@@H]1OC | inactive: -11.3% | – |
| CCOc1ccc(C(=O)NCC(c2ccc(Cl)cc2)N2CCCCC2)cc1 (centres undefined) | inactive: 6.43% | – |
| Nc1nc(=O)n([C@H]2C[C@H](O)[C@@H](CO)O2)cc1F | inactive: -8.31% | – |
| O=C(Cn1ncc2c3ccccc3n(Cc3cccc(Cl)c3)c2c1=O)NCCCN1CCCCC1 | inactive: -1.24% | – |
| CCOCCCNc1nc2c(S(=O)(=O)c3ccc(CC)cc3)nnn2c2ccc(Cl)cc12 | inactive: 16.5% | – |
| Cc1ccc(CNC(=O)Cn2c(=O)cc(C)c3c(C)nn(-c4cccc(F)c4)c32)cc1 | inactive: -5.61% | – |
| Cc1ccc(C)c(N2CCN(S(=O)(=O)c3ccc(-c4cnc(C5CC5)o4)cc3)CC2)c1 | inactive: -10.5% | – |
| Cc1ccc(NC(=O)CSc2nc(-c3cccs3)nc3cc(=O)[nH]n23)cc1C | inactive: -17.5% | – |
| CCOc1ccccc1CN1CCc2nc(N3CCN(C)CC3)ncc2C1 | inactive: -8.92% | – |
| O=C(NCCc1ccccc1)C1CCN(Cc2cc3ccccc3n2Cc2ccccc2)CC1 | inactive: -31.1% | – |
| COc1ccc(-c2cn3cccnc3n2)cc1NC(=O)Nc1cc(C)ccc1C | inactive: -3.3% | – |
| COc1ccc(COC(=O)C2=C(C)NC(=O)CC2c2cccc(Cl)c2Cl)cc1 (centres undefined) | inactive: -11% | – |
| CCOc1ccc(-c2cc(C(=O)NC(C)c3ccccc3)c3ccccc3n2)cc1 (centres undefined) | inactive: 15.6% | – |
| CN1C(C(=O)c2ccccc2)=C(NC(=O)c2ccc(F)cc2)c2ccccc2S1(=O)=O | inactive: -11.2% | – |
| CCOC(=O)c1cc(-c2ccc(OC)c(S(=O)(=O)NCc3ccccc3Cl)c2)on1 | inactive: -9.8% | – |
